Experimental data taken from PubChem BioAssay AID540317 (National Center for Advancing Translational Sciences (NCATS), 2011).
Values joined by “and” are separate entries in the source; they are usually repeats but may differ in a detail not shown here. Equal entries are not always repeated. Out of some 390,000 compounds screened, about 2,200 (0.56%) were called active. Inconclusive results, whose numbers are uncertain, are shown with a selection of clear calls. The call rests on the fitted dose curve; in most records, active means well fitted inhibition curve with a large enough effect; inconclusive means small, poorly fitted or top-dose-only effect; inactive means no such curve, though single readings can be large or run the other way. Potencies of inconclusive entries are doubtful fits and often do not repeat.

Molecular target: Chromobox protein homolog 1 (Homo sapiens) (UniProt P83916)
Test: HTS for Inhibitors of HP1-beta Chromodomain Interactions with Methylated Histone Tails; further: nearly all actives have a fitted effect of over 70% in size
Conditions: AlphaScreen HP1-beta / biotin-H3K9me3 peptide binding; series mostly up to 114 µM
How it was run: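 Compound inhibition of the preformed complex between 50 nM HP1-beta and 50 nM biotinylated H3K9me3 peptide was read by AlphaScreen. Buffer was PBS pH 7.4 with 0.01% Tween-20. Incubations ran 30 min at room temperature, with 10 ug/mL donor/acceptor beads.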
Potency means the concentration at half of the fitted maximal effect; tags describe the fitted curve by direction and shape.

Chain of UniProt P83916 (P83916 whole entry, looked up): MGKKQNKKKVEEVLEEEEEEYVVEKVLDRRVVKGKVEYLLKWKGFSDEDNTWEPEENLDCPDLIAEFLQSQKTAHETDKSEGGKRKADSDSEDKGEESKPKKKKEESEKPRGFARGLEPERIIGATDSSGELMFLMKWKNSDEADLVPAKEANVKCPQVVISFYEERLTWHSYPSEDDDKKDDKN

| SMILES | Potency |
| --- | --- |
| O=[N+]([O-])c1ccccc1S(=O)(=O)N1CCN(C2CCN(Cc3ccccc3)CC2)CC1 | inconclusive: 20 µM [inhibitor, full curve] |
| Cc1ccc(Nc2cc(C)c(O)c(C)c2)cc1 | active: 50.1 µM |
| CCOC(=O)Cn1c(=O)cc(C)c2ccccc21 | inconclusive: 5.01 µM [inhibitor, full curve] |
| COc1cccc(C(=O)N2CCN(Cc3ccccc3C(F)(F)F)CC2)c1 | inconclusive: 15.8 µM [inhibitor, full curve, poor fit] |
| Cc1cccc(C)c1NC(=O)CSc1nc2ncccc2o1 | inactive |
| Cc1ccc(S(=O)(=O)NCC(c2ccc(N(C)C)cc2)N2CCc3ccccc32)cc1C (configuration not stated) | inactive |
| COc1cc(SSc2cc(OC)cc([N+](=O)[O-])c2N)c(N)c([N+](=O)[O-])c1 | inconclusive: 1.58 µM [inhibitor, full curve, poor fit] |
| C(=N\Nc1ccccn1)/c1ccc2c(c1)OCCO2 | inconclusive: 89.1 µM [inhibitor, partial curve, poor fit] |
| Cc1sc2nc(CN3CCN(c4ccc(O)cc4)CC3)[nH]c(=O)c2c1C | inconclusive: 70.8 µM [inhibitor, single point] |
| COc1cccc(CNc2nccn(-c3cc(C)cc(C)c3)c2=O)c1 | inconclusive: 56.2 µM [inhibitor, partial curve] |
| Cc1ccc(S(=O)(=O)/N=S(/c2ccccc2)C(C)C)cc1 (configuration not stated) | inconclusive: 44.7 µM [inhibitor, partial curve] |
| CCOC(=O)c1c(-c2cccs2)csc1N | inconclusive: 79.4 µM [inhibitor, partial curve, poor fit] |
| CCN1CCN(CCOc2ccc(Cl)cc2)CC1 | inconclusive: 14.1 µM [inhibitor, full curve, poor fit] |
| Cc1ncc(CSc2nnnn2-c2ccccc2)c(N)n1 | inactive |
| CC(=O)n1c2ccccc2c2nc(NC(C)C)sc21 | inconclusive: 25.1 µM [inhibitor, partial curve, poor fit] |
| Cc1ccc(S(=O)(=O)Nc2cc3c(C(=O)O)c(C)oc3c3ccccc23)c(C)c1 | inconclusive: 15.8 µM [inhibitor, full curve, poor fit] |
| N#CC1=C2Nc3ccccc3N2C(=O)NC1(c1ccccc1)C(F)(F)F (configuration not stated) | inconclusive: 39.8 µM [inhibitor, single point] |
| NC(=S)N/N=C/c1ccccc1[N+](=O)[O-] | inconclusive: 50.1 µM [inhibitor, partial curve] |
| Brc1ccc(CN2CCN(c3ccccn3)CC2)s1 | inconclusive: 56.2 µM [inhibitor, partial curve] |
| Cn1ncc2c(c(SCc3ccc(Cl)cc3Cl)nn2C)c1=O | inconclusive: 35.5 µM [inhibitor, partial curve, poor fit] |
| Cc1cc(C)c(S(=O)(=O)/N=C2\C=C(NS(=O)(=O)c3ccccc3)C(=O)c3ccccc32)c(C)c1 | inconclusive: 11.2 µM [inhibitor, full curve] |
| O=[N+]([O-])c1ccccc1CSc1ccccn1 | inactive |
| COc1ccc(C(=S)N2CCOCC2)cc1OC(=O)c1cc(OC)c(OC)c(OC)c1 | inconclusive: 25.1 µM [inhibitor, partial curve] |

| SMILES | Potency |
| --- | --- |
| Cc1ccc2c(C)c(C(=O)N(Cc3ccc(N(C)C)cc3)C3CCS(=O)(=O)C3)oc2c1 (configuration not stated) | inconclusive: 25.1 µM [inhibitor, full curve] |
| Nc1ccc2c(c1)Cc1cc(N)c(Br)cc1-2 | inconclusive: 44.7 µM [inhibitor, partial curve, poor fit] |
| COc1ccc(-c2n[nH]c(C)c2-c2cc(OC)ccc2O)cc1 | inactive |
| c1ccc(Nc2cccc3c(Nc4ccccc4)cccc23)cc1 | inconclusive: 12.6 µM [inhibitor, full curve, poor fit] |
| C=CCN1C(=O)C(O)(CC(=O)c2ccccn2)c2ccccc21 (configuration not stated) | inconclusive: 70.8 µM [inhibitor, partial curve, poor fit] |
| c1ccc(CCc2nn3c(C4COc5ccccc5O4)nnc3s2)cc1 (configuration not stated) | inconclusive: 7.94 µM [inhibitor, full curve] |
| CCOc1ccccc1CNC(=O)c1cn(-c2ccc(OC)cc2)c(=O)c2ccccc12 | inactive |
| COC(=O)c1ccccc1OCCCCN1CC(C)OC(C)C1 (configuration not stated) | inconclusive: 25.1 µM [inhibitor, single point] |
| CCN1C(=O)/C(=C\c2cccc(OC(=O)c3ccco3)c2)SC1=S | inconclusive: 39.8 µM [inhibitor, partial curve, poor fit] |
| N#Cc1nc(COc2cccc(Cl)c2)oc1N1CCCC1 | inconclusive: 14.1 µM [inhibitor, partial curve, poor fit] |
| S=C(NCc1ccco1)Nc1cc(-c2ccccc2)[nH]n1 | inconclusive: 44.7 µM [inhibitor, partial curve] |
| CCOC(=O)C1CCCN(c2c(NCCCN(C)c3ccccc3)c(=O)c2=O)C1 (configuration not stated) | inactive |
| N#C/C(=N\Nc1ccc(Cl)cc1)C(=O)c1ccsc1 | inconclusive: 50.1 µM [inhibitor, partial curve] |
| OCCN1CCN(CC(O)COC(c2ccc(F)cc2)c2ccc(F)cc2)CC1 (configuration not stated) | inconclusive: 25.1 µM [inhibitor, partial curve] |
| N/C(=N\OC(=O)Cc1ccccc1)c1ccccn1 | inconclusive: 7.08 µM [inhibitor, single point] |
| COc1ccccc1OCCCCN1CCC(C)CC1 | inconclusive: 56.2 µM [inhibitor, single point] |
| COc1cc(OC)c2c(-c3ccccc3)cc(=O)oc2c1C(CCN1CCN(c2ccccc2)CC1)c1ccc(N(C)C)cc1 (configuration not stated) | inconclusive: 10 µM [inhibitor, full curve] and inconclusive: 10 µM [inhibitor, full curve, poor fit] |
| CCOC(=O)N1CCN(Cc2c(O)ccc3ccccc23)CC1 | inconclusive: 79.4 µM [inhibitor, partial curve] |
| CCOc1cc(C2C(C#N)=C(N)SC(N)=C2C#N)ccc1OCCN1CCOCC1 | inconclusive: 35.5 µM [inhibitor, partial curve, poor fit] |
| Cc1cccc(-n2c(-c3csc4ccccc34)n[nH]c2=S)c1 | inconclusive: 39.8 µM [inhibitor, partial curve, poor fit] |
| CC(C)c1ccc(Nc2ncnc3c2nc2n3CCCC2)cc1 | inactive |
| CCC(=O)Nc1ccccc1-c1nc2ccccc2n(C(C)C(=O)Nc2cccc(Cl)c2C)c1=O (configuration not stated) | inactive |
| COc1ccc(NC(=O)c2ccc(NC(=O)CN3CCN(c4ccc(O)cc4)CC3)cc2)cc1 | inconclusive: 79.4 µM [inhibitor, single point] |

| SMILES | Potency |
| --- | --- |
| O=C(CCN1C(=O)/C(=C\c2ccccc2Cl)SC1=S)N1CCN(c2ccccc2)CC1 | inconclusive: 3.16 µM [inhibitor, full curve, poor fit] |
| Cc1ccccc1CNC(=O)CN1CCSc2ccccc21 | inactive |
| Cc1ccc(NC(=O)CN2CCCCCC2)cc1Br | inconclusive: 70.8 µM [inhibitor, partial curve] |
| Cc1ccc(N2C(=O)C(Cl)=C(N3CCCCCC3)C2=O)c(C)c1 | inactive |
| COc1cccc(CN2CCC(C(=O)N3CCN(c4ccccc4F)CC3)CC2)c1OC | inconclusive: 12.6 µM [inhibitor, partial curve, poor fit] |
| COC(=O)c1c(NC(=O)COC(=O)c2ccccn2)sc(C)c1C | inactive |
| COc1cccc(/C=N/n2c(C)nc3ccccc3c2=O)c1O | inactive |
| CCOC(=O)N1CCN(C(=O)CSc2ccc(-c3ccccc3OC)nn2)CC1 | inactive |
| CCCC(c1nnnn1CC1CCCO1)N1CCN(c2ccccc2)CC1 (configuration not stated) | inactive |
| COc1ccccc1CN1CCCC(C(=O)N(C)Cc2ccccc2)C1 (configuration not stated) | inconclusive: 56.2 µM [inhibitor, partial curve, poor fit] |
| COc1ccccc1Nc1ccc(NS(=O)(=O)c2ccc(C(C)=O)cc2)cc1 | inconclusive: 35.5 µM [inhibitor, partial curve] |
| Nc1[nH]c2cc([N+](=O)[O-])ccc2c1-c1ccccn1 | inconclusive: 25.1 µM [inhibitor, full curve] |
| Cc1ccc(S(=O)(=O)NCC(c2ccccc2)N2CCCCC2)cc1 (configuration not stated) | inactive |
| O=C(CNCc1ccc(Cl)cc1)NCc1ccco1 | inconclusive: 79.4 µM [inhibitor, partial curve, poor fit] |
| CCC(=S)/C=C1\Sc2ccccc2N1CCCS(=O)(=O)O | inconclusive: 39.8 µM [inhibitor, single point] |
| CCOC(=O)C1CCCN(Cc2ccc(O)c(OC)c2)C1 (configuration not stated) | inconclusive: 79.4 µM [inhibitor, single point] |
| O=C(CN1CCCC1)N1CCCc2ccccc21 | inconclusive: 56.2 µM [inhibitor, partial curve, poor fit] |
| COc1cc(C2CC(=O)Oc3c(C(CCN4CCCC(C)C4)c4ccc(N(C)C)cc4)c(OC)cc(OC)c32)cc(OC)c1OC (configuration not stated) | inconclusive: 39.8 µM [inhibitor, partial curve] and inconclusive: 39.8 µM [inhibitor, full curve, poor fit] |
| CSc1ccc(/C=N/Nc2cccc(C(=O)O)c2)cc1 | active: 10 µM |
| CN(Cc1ccccc1)C(=O)COC(=O)/C=C/c1ccco1 | inconclusive: 70.8 µM [inhibitor, partial curve] |
| OCC1(Cc2ccccc2)CCCN(Cc2ccn[nH]2)C1 (configuration not stated) | inactive |
